The supplement of paper PMC10126150
Sequences with one replicate were seen in a single cluster, so their values are uncertain.

Test system: ATP
Assay: switch fluorescence ratio, 500 uM ATP over buffer (Cy3 cluster intensity, sum of 5 cycles each) (fold (ratio)); higher = stronger signal-on switching upon ATP binding; sequences stand for … in TCGTCGGCAGCGTCAGATGTGTATAAGAGACAGTTTTTTTTTTTTTTTTTTTTTTTTT…TC
Conditions: aptamer strand: ATP DNA aptamer (quencher-CACCTGGGGGAGTATTGCGGAGGAAGG + anchor), 100 nM annealed; ATP concentration: 500 uM; one replicate
Method in brief: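 Five buffer/ATP imaging cycles were run on Cy3-labelled switching-strand clusters on a modified Illumina MiSeq flow-cell, with NaOH stripping and re-annealing between cycles. In each cycle, clusters annealed to 100 nM quencher-labelled ATP aptamer were imaged in selection buffer, then after 15 min with 500 uM ATP at 22 °C. Per cluster, the fluorescence ratio is summed target-cycle over summed buffer-cycle Cy3 intensity, averaged per switch-domain sequence. Only clusters within 100-1000 RFU were kept.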
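Note: ATP exposure 15 min at 22 °C before imaging.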

Sequence	switch fluorescence ratio
AGGCCTTTT	1.02
CCGATTAGCG	1.2
CGTCGGGTGC	1.07
ACGTATGAGC	1.08
TTCATTACAA	1
AGGTAGGAAC	1.23
AGTCTATATT	0.984
AGAAATTATG	1.01
TAACTATCGG	0.967
AAGTCTGCG	1.02
GACGCGTCTA	1
CTAACGTCCA	1.09
GCCTAACGTG	1.01
AAATGTACTG	0.989
AAAAACGCCT	1.08
CCATTTTCAC	1
TGCTTAATCT	0.978
TATCAGGAGG	1.04
GGGCTGTGTA	1.02
AAAGTCCAGG	1.27
CGGTCTCGAA	0.996
TCTTAGTC	1.04
CTTTCCGGCG	1.32
CTGGTACCAC	1.01
CATATTTTTC	1.02
ACGTACCAAG	1.39

Sequence	switch fluorescence ratio
TATGTGCCGG	1.06
TCCTCGCACG	3.1
TCAAGTGGAG	1.04
TACGGGCCAT	1.01
AAAGCGGTA	1.11
GAGAGCGAAG	1.05
TAACTCGTTG	0.99
GAATGGAGAT	0.983
TTACCGATGG	1.04
ACGAGAGTGA	1.04
TTAGGACCTT	0.974
TTACCGGAGC	1.69
TCCAATTGAG	1.04
GCGAGCGAAG	0.977
TACTTAACTT	1.12
AATGCCCATA	1.02
TAGACGACTA	1.04
AAAAGGTAAG	1.02
TTAGGCGTAA	0.981
TTGCATCATT	1.03
CGTTACCAAA	0.97
ATGCTAGTT	1.02
TAGCTAGGGA	0.992
GCCGTATGTC	0.964
CCAGAAGTCA	1.01
CTTTTTCGTT	0.998

Sequence	switch fluorescence ratio
ACCTAGCGTA	0.992
GGCTGCTAAA	1.02
ACTGGAGGGA	1.03
AGCATATGCT	1.05
ATCTCTTTAC	1.06
CGACCCATG	0.955
TCGCTTCTGA	0.959
TATATCGAGA	1
TACTGGCACC	1.2
GGATCCCTGC	1.02
ATAGTTGTCT	0.985
CAGTAGCCAG	0.987
GCATATTGTC	0.979
GATTCCTA	1.01
ACAATGCGGC	1.02
TGGCAAGCTT	1.3
TGCGAGGAAA	1.06
GCTTAGACTC	1.07
GGACCACGCC	1.08
CGGTCACTAA	1.02
GGACTATGAC	1.02
GCCCCTCTGA	0.987
AATCGAGCTG	0.984
CTCCAGTATA	1.35
TTGAAATTCC	1.04
GTAGGTGAGG	1.01

Sequence	switch fluorescence ratio
ATGTAGCCG	1.01
CTGGTACTGG	0.996
CATATTATCT	0.941
TGCAGCACGC	1.52
TCTGTCTGAT	1.02
ACGATACCTG	1.55
CCAGAGTAAT	1.02
CTGGATAGGA	1
CTAGGCCGCT	1.01
TTTGTGGCCG	1.12
CCTTGTACAG	1.01
ACACTATTTT	1.03
CGCTCCCGGG	1.68
TAGTGTAAAC	0.993
CCTTATTAGA	0.984
TGGTAGCTTA	1.01
AATCCATATA	1.02
ATTCGAGGCA	1.03
GGAATGCAGC	0.997
TTCTTTCCTG	0.985
CAACCTAAAT	1.01
CGACACCTTA	1.09
ATAATGGACT	1
ATGTGAGCCG	0.941
AACAAGGTAA	1.01
ATCTTCGAAA	1.17

Sequence	switch fluorescence ratio
GGTGTCCGCC	1
TTTACGGCGC	1.06
TTGAGGCTCC	0.964
TTCTCCTTCT	1.06
TGCCGCTCAG	1.06
TATTGCAC	1.07
AATAGCCTGC	0.982
AGGCACTATA	1
TAACGGAACG	1.04
ACCGGACTTA	1.12
CCTGTTATTG	0.981
TTCAGGCTGC	0.998
CCTAGGTTTT	0.983
CACAAGATAT	1.06
TCCTTTACTT	1.02
ATTTAATAGG	1.02
GATCGGAGGT	1.01
ATGGGTGCAT	1.02
GCATCAAACG	1.03
GCAGGGGTCA	0.992
CGGATTACTG	1.05
GCGTAAATCG	0.955
GCTCCGGCGT	1.38
AGATTCGCCA	0.994
GCCAAATGTT	0.988
CGAGCGGTAG	1.15

Sequence	switch fluorescence ratio
TGCCATGGAC	1.06
TCTTAGGGGC	1.01
TGTGGTTTG	0.98
GCTCTTGAAG	0.976
GAAAGCCCG	1.02
CTTGGAAGG	1.02
GTTTCCTATG	1.03
CCTGATAAGG	1
CCGATCAGTT	1.11
TGCTTTTTTA	0.984
TGTGGGGTAC	1.04
GAGGGATCTA	0.98
ACACAGAAAT	1.02
TTTCGGTTTA	1.01
GCCTCAATCC	1.53
AGTATGCCA	0.969
TGCGGAGTAT	1.04
TACACCCTCG	1.13
CCTAAGTTT	0.984
TTCAGAGGTG	1.16
TTTTAAACGG	0.971
ACATAAAATA	1.01
CATTTACGTA	1.17
GACGGGTCAT	0.934
AAGCGAATTA	1.01
TAGCCCCCCG	1.08

Sequence	switch fluorescence ratio
TCCAATAGTC	1.32
AGAATTAGCG	1.01
GCGCACGAGT	1.01
GGGCATGCTG	0.96
TAATCGAGCC	1
TGCTTCGCGC	1.55
CAAAGTTGC	0.998
AAAGCGGCCC	1.04
TTAACAGACT	1.06
TTTTAGATCC	0.973
TGGATTCCTT	0.989
GTGTTTCGGT	0.977
GTTAGCGTAA	1.07
ACACGGCGAG	1.02
TCTGTCCCCT	1.01
CGTCCACCCA	1.05
ATACTGAACC	1.25
CTCTAATGGC	1.09
AGTCGGACCT	1.25
TGTCTTGCCT	0.972
ATCGCGGTCG	0.994
ACCGGCTGGT	0.994
AGCGATATCT	1.56
AAAACGCCTT	1.06
CCGCACGGCA	1.84
AAGTTAAACC	1.08

Sequence	switch fluorescence ratio
AGCTAAGGGA	1
AGTCCACGCA	1.18
CTTTATGGGC	0.994
TTTGAGAACG	0.974
ACGCAGGTCG	0.967
GTTCCTCCTG	2.3
TCGTTTAATC	1
AGTCTTTCCC	0.986
ATGTGTTCCT	1.03
GCCCTTATCT	0.995
CCCCGAGGA	1.09
TATAGTAAGT	1.01
AAAAGTCGGT	0.997
ATAAGAGAGG	0.96
ATGATGAACG	1.02
GGTGGGGCG	0.991
CGACCGCGGC	1.71
TCCCAAAGTA	1.01
ACCTGTACAA	1.17
